Test results: the supplement of paper PMC8728848
This is one part of the list.

Key:
Experiment in all cases: glycan array binding signal (z-score within array); higher = stronger binding
Details in all cases: glycan notation: IUPAC condensed, linker removed
[1] = biological target: GlcNAc(b1-3)Gal(b1-3)GalNAc
Procedure, shortened: (§1)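 Glycan array data came from 3228 arrays in the Consortium for Functional Glycomics database, and only arrays with an available protein sequence were kept. Glycan names were put into IUPAC-condensed notation, and columns mapping to the same glycan were averaged. The binding signal is a within-array Z-score, averaged across arrays of one protein sequence run at different concentrations or buffers and across linkers. A negative Z-score can be read as non-binding.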

GlcNAc(b1-3)Gal(b1-4)Glc = biological target: GlcNAc(b1-3)Gal(b1-4)Glc
Procedure, shortened: as §1

[2] = biological target: GlcNAc(b1-3)Gal(b1-4)GlcNAc
Procedure, shortened: as §1

[3] = biological target: GlcNAc(b1-3)Gal(b1-4)GlcNAc(b1-2)Man(a1-3)[GlcNAc(b1-3)Gal(b1-4)GlcNAc(b1-2)Man(a1-6)]Man(b1-4)GlcNAc(b1-4)GlcNAc
Procedure, shortened: as §1

[4] = biological target: GlcNAc(b1-3)Gal(b1-4)GlcNAc(b1-2)Man(a1-3)[GlcNAc(b1-3)Gal(b1-4)GlcNAc(b1-2)Man(a1-6)]Man(b1-4)GlcNAc(b1-4)[Fuc(a1-6)]GlcNAc
Procedure, shortened: as §1

[5] = biological target: GlcNAc(b1-3)Gal(b1-4)GlcNAc(b1-2)[GlcNAc(b1-3)Gal(b1-4)GlcNAc(b1-6)]Man(a1-6)[GlcNAc(b1-3)Gal(b1-4)GlcNAc(b1-2)Man(a1-3)]Man(b1-4)GlcNAc(b1-4)GlcNAc
Procedure, shortened: as §1

[6] = biological target: GlcNAc(b1-3)Gal(b1-4)GlcNAc(b1-3)Gal(b1-4)GlcNAc
Procedure, shortened: as §1

[7] = biological target: GlcNAc(b1-3)Gal(b1-4)GlcNAc(b1-3)Gal(b1-4)GlcNAc(b1-2)Man(a1-3)[GlcNAc(b1-3)Gal(b1-4)GlcNAc(b1-3)Gal(b1-4)GlcNAc(b1-2)Man(a1-6)]Man(b1-4)GlcNAc(b1-4)GlcNAc
Procedure, shortened: as §1

[8] = biological target: GlcNAc(b1-3)Gal(b1-4)GlcNAc(b1-3)Gal(b1-4)GlcNAc(b1-2)Man(a1-3)[GlcNAc(b1-3)Gal(b1-4)GlcNAc(b1-3)Gal(b1-4)GlcNAc(b1-2)Man(a1-6)]Man(b1-4)GlcNAc(b1-4)[Fuc(a1-6)]GlcNAc
Procedure, shortened: as §1

[9] = biological target: GlcNAc(b1-3)Gal(b1-4)GlcNAc(b1-3)Gal(b1-4)GlcNAc(b1-2)[GlcNAc(b1-3)Gal(b1-4)GlcNAc(b1-3)Gal(b1-4)GlcNAc(b1-6)]Man(a1-6)[GlcNAc(b1-3)Gal(b1-4)GlcNAc(b1-3)Gal(b1-4)GlcNAc(b1-2)Man(a1-3)]Man(b1-4)GlcNAc(b1-4)[Fuc(a1-6)]GlcNAc
Procedure, shortened: as §1

[10] = biological target: GlcNAc(b1-3)Gal(b1-4)GlcNAc(b1-3)Gal(b1-4)GlcNAc(b1-3)Gal(b1-4)GlcNAc(b1-2)Man(a1-3)[GlcNAc(b1-3)Gal(b1-4)GlcNAc(b1-3)Gal(b1-4)GlcNAc(b1-3)Gal(b1-4)GlcNAc(b1-2)Man(a1-6)]Man(b1-4)GlcNAc(b1-4)GlcNAc
Procedure, shortened: as §1

[11] = biological target: GlcNAc(b1-3)Gal(b1-4)GlcNAc(b1-3)Gal(b1-4)GlcNAc(b1-3)Gal(b1-4)GlcNAc(b1-2)Man(a1-3)[GlcNAc(b1-3)Gal(b1-4)GlcNAc(b1-3)Gal(b1-4)GlcNAc(b1-3)Gal(b1-4)GlcNAc(b1-2)Man(a1-6)]Man(b1-4)GlcNAc(b1-4)[Fuc(a1-6)]GlcNAc
Procedure, shortened: as §1

[12] = biological target: GlcNAc(b1-3)Gal(b1-4)GlcNAc(b1-3)Gal(b1-4)GlcNAc(b1-3)Gal(b1-4)GlcNAc(b1-2)[GlcNAc(b1-3)Gal(b1-4)GlcNAc(b1-3)Gal(b1-4)GlcNAc(b1-3)Gal(b1-4)GlcNAc(b1-6)]Man(a1-6)[GlcNAc(b1-3)Gal(b1-4)GlcNAc(b1-3)Gal(b1-4)GlcNAc(b1-3)Gal(b1-4)GlcNAc(b1-2)Man(a1-3)]Man(b1-4)GlcNAc(b1-4)[Fuc(a1-6)]GlcNAc
Procedure, shortened: as §1

[13] = biological target: GlcNAc(b1-3)Gal(b1-4)GlcNAc(b1-3)Gal(b1-4)GlcNAc(b1-3)Gal(b1-4)GlcNAc(b1-3)Gal(b1-4)GlcNAc(b1-2)Man(a1-3)[GlcNAc(b1-3)Gal(b1-4)GlcNAc(b1-3)Gal(b1-4)GlcNAc(b1-3)Gal(b1-4)GlcNAc(b1-3)Gal(b1-4)GlcNAc(b1-2)Man(a1-6)]Man(b1-4)GlcNAc(b1-4)GlcNAc
Procedure, shortened: as §1

[14] = biological target: GlcNAc(b1-3)Gal(b1-4)GlcNAc(b1-3)Gal(b1-4)GlcNAc(b1-3)Gal(b1-4)GlcNAc(b1-3)Gal(b1-4)GlcNAc(b1-2)Man(a1-3)[GlcNAc(b1-3)Gal(b1-4)GlcNAc(b1-3)Gal(b1-4)GlcNAc(b1-3)Gal(b1-4)GlcNAc(b1-3)Gal(b1-4)GlcNAc(b1-2)Man(a1-6)]Man(b1-4)GlcNAc(b1-4)[Fuc(a1-6)]GlcNAc
Procedure, shortened: as §1

[15] = biological target: GlcNAc(b1-3)Gal(b1-4)GlcNAc(b1-3)Gal(b1-4)GlcNAc(b1-3)Gal(b1-4)GlcNAc(b1-3)Gal(b1-4)GlcNAc(b1-2)[GlcNAc(b1-3)Gal(b1-4)GlcNAc(b1-3)Gal(b1-4)GlcNAc(b1-3)Gal(b1-4)GlcNAc(b1-3)Gal(b1-4)GlcNAc(b1-6)]Man(a1-6)[GlcNAc(b1-3)Gal(b1-4)GlcNAc(b1-3)Gal(b1-4)GlcNAc(b1-3)Gal(b1-4)GlcNAc(b1-3)Gal(b1-4)GlcNAc(b1-2)Man(a1-3)]Man(b1-4)GlcNAc(b1-4)[Fuc(a1-6)]GlcNAc
Procedure, shortened: as §1

[16] = biological target: GlcNAc(b1-3)Gal(b1-4)GlcNAc(b1-3)Gal(b1-4)GlcNAc(b1-3)GalNAc
Procedure, shortened: as §1

[17] = biological target: GlcNAc(b1-3)Gal(b1-4)GlcNAc(b1-3)GalNAc
Procedure, shortened: as §1

[18] = biological target: GlcNAc(b1-3)Gal(b1-4)GlcNAc(b1-3)[GlcNAc(b1-3)Gal(b1-4)GlcNAc(b1-3)]GalNAc
Procedure, shortened: as §1

[19] = biological target: GlcNAc(b1-3)Gal(b1-4)GlcNAc(b1-6)[Gal(b1-3)]GalNAc
Procedure, shortened: as §1

[20] = biological target: GlcNAc(b1-3)Gal(b1-4)GlcNAc(b1-6)[GlcNAc(b1-3)Gal(b1-3)]GalNAc
Procedure, shortened: as §1

[21] = biological target: GlcNAc(b1-3)Gal(b1-4)GlcNAc(b1-6)[GlcNAc(b1-3)]Gal(b1-4)GlcNAc
Procedure, shortened: as §1

GlcNAc(b1-3)GalNAc = biological target: GlcNAc(b1-3)GalNAc
Procedure, shortened: as §1

GlcNAc(b1-3)Man = biological target: GlcNAc(b1-3)Man
Procedure, shortened: as §1

[22] = biological target: GlcNAc(b1-3)[GlcNAc(b1-4)][GlcNAc(b1-6)]GlcNAc
Procedure, shortened: as §1

[23] = biological target: GlcNAc(b1-3)[GlcNAc(b1-6)]Gal(b1-4)GlcNAc
Procedure, shortened: as §1

[24] = biological target: GlcNAc(b1-3)[GlcNAc(b1-6)]GalNAc
Procedure, shortened: as §1

[25] = biological target: GlcNAc(b1-4)Gal(b1-4)GlcNAc
Procedure, shortened: as §1

GlcNAc(b1-4)GlcNAc = biological target: GlcNAc(b1-4)GlcNAc
Procedure, shortened: as §1

[26] = biological target: GlcNAc(b1-4)GlcNAc(b1-4)GlcNAc
Procedure, shortened: as §1

[27] = biological target: GlcNAc(b1-4)GlcNAc(b1-4)GlcNAc(b1-4)GlcNAc(b1-4)GlcNAc
Procedure, shortened: as §1

[28] = biological target: GlcNAc(b1-4)GlcNAc(b1-4)GlcNAc(b1-4)GlcNAc(b1-4)GlcNAc(b1-4)GlcNAc
Procedure, shortened: as §1

[29] = biological target: GlcNAc(b1-4)[GlcNAc(b1-6)]GalNAc
Procedure, shortened: as §1

[30] = biological target: GlcNAc(b1-6)Gal(b1-4)GlcNAc
Procedure, shortened: as §1

GlcNAc(b1-6)GalNAc = biological target: GlcNAc(b1-6)GalNAc
Procedure, shortened: as §1

[31] = biological target: GlcNAc6S(b1-3)Gal(b1-4)GlcNAc
Procedure, shortened: as §1

Kdn(a2-3)Gal(b1-3)GalNAc = biological target: Kdn(a2-3)Gal(b1-3)GalNAc
Procedure, shortened: as §1

B1: PVL (Psathyrella velutina), Q309D1_9AGAR (protein)
chain: MSVVVISQALPVPTRIPGVADLVGFGNGGVYIIRNSLLIQVVKVINNFGYDAGGWRVEKHVRLLADTTGDNQPDVVGFGENGVWISTNNGNNTFVDPPKMVLANFAYAAGGWRVEKHIRFMADLRKTGRADIVGFGDGGIYISRNNGGGQFAPAQLALNNFGYAQGWRLDRHLRFLADVTGDGLLDVVGFGENQVYIARNSGNGTFQPAQAVVNNFCIGAGGWTISAHPRVVADLTGDRKADILGFGVAGVYTSLNNGNGTFGAVNLVLKDFGVNSGWRVEKHVRCVSSLTNKKVGDIIGFGDAGVYVALNNGNGTFGPVKRVIDNFGYNQGWRVDKHPRFVVDLTGDGCADIVGFGENSVWACMNKGDGTFGPIMKLIDDMTVSKGWTLQKTVRYAANLYL
glycan array binding signal (z-score) [1]: 1.48
glycan array binding signal (z-score) (GlcNAc(b1-3)Gal(b1-4)Glc): 4.07
glycan array binding signal (z-score) [2]: 3.63
glycan array binding signal (z-score) [3]: 3.5
glycan array binding signal (z-score) [4]: 3.27
glycan array binding signal (z-score) [5]: 3.69
glycan array binding signal (z-score) [6]: 4.46
glycan array binding signal (z-score) [7]: 3.34
glycan array binding signal (z-score) [8]: 4.03
glycan array binding signal (z-score) [9]: 4.69
glycan array binding signal (z-score) [10]: 4.58
glycan array binding signal (z-score) [11]: 4.34
glycan array binding signal (z-score) [12]: 5.13
glycan array binding signal (z-score) [13]: 4.45
glycan array binding signal (z-score) [14]: 4.27
glycan array binding signal (z-score) [15]: 5.12
glycan array binding signal (z-score) [16]: 2.88
glycan array binding signal (z-score) [17]: 1.51
glycan array binding signal (z-score) [18]: 2.73
glycan array binding signal (z-score) [19]: 2.05
glycan array binding signal (z-score) [20]: 2.71
glycan array binding signal (z-score) [21]: 3.83
glycan array binding signal (z-score) (GlcNAc(b1-3)GalNAc): 1.05
glycan array binding signal (z-score) (GlcNAc(b1-3)Man): 0.277
glycan array binding signal (z-score) [22]: 0.097
glycan array binding signal (z-score) [23]: 2.91
glycan array binding signal (z-score) [24]: 1.1
glycan array binding signal (z-score) [25]: -0.133
glycan array binding signal (z-score) (GlcNAc(b1-4)GlcNAc): 0.43
glycan array binding signal (z-score) [26]: 0.777
glycan array binding signal (z-score) [27]: 0.647
glycan array binding signal (z-score) [28]: 0.53
glycan array binding signal (z-score) [29]: 0.637
glycan array binding signal (z-score) [30]: 0.714
glycan array binding signal (z-score) (GlcNAc(b1-6)GalNAc): 0.215
glycan array binding signal (z-score) [31]: -0.338
glycan array binding signal (z-score) (Kdn(a2-3)Gal(b1-3)GalNAc): -0.353
